Laboratory results from the supplement of paper PMC11417369.
The list shows a part of the results.

Each sequence was assayed on PfAP2-HC AP2 domain (GST-tagged) (assay: gcPBM binding intensity (ln(normalized median fluorescence intensity)); higher = stronger DNA binding).
Outline: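 After 1 h on an Agilent 4 × 180k array of primer-extended double-stranded 36-bp intergenic genomic probes and negative controls, bound GST-tagged P. falciparum DNA-binding domains were detected with Alexa488 anti-GST antibody and scanned at 488 nm. The domains had been expressed in E. coli, and binding took place in 1× PBS with 1% milk, 0.2 mg/ml BSA, 0.5% salmon testes DNA and 0.03% Triton X-100. Binding intensity is the highest Masliner-normalised natural-log median intensity across replicate spots of either probe orientation.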

| Sequence | gcPBM binding intensity (ln) |
| --- | --- |
| AAAACAGTGACAACTCGTACTTATATTTTTTTTTGT [XGTACX_site4968] | 9.65 |
| AGGCCCTATGTTGTTACACACATAGAATGATACATC [CACACA_site1266] | 9.71 |
| AAATTATTATGAAATGGAAAATGCATAAATTGTTTT [XGTACX_negctrl_site206] | 9.63 |
| ATTAAATAATAATAATGTACGTATTATATTAATACA [XGTACX_site5439] | 9.72 |
| TAAAATTTAAAATATACACACAAAAAGTTATTACAA [CACACA_site4080] | 9.73 |
| CTCTTTAAAAATATGGGTACAAAAAAAAAAAAAATA [XGTACX_site6185] | 9.22 |
| ATTCTTTACTCATAAAATTATATTATATAAACTTTT [XGTACX_negctrl_site554] | 9.67 |
| AATACGACAAACAAATGTACAAATAAATATTCGCGT [XGTACX_site6427] | 9.78 |
| TGAGAAAATTAAAAGGTGCTCAGAAATTTTATATTA [GTGCAC_site9954] | 9.6 |
| TTTTCTTTTAATATTTTTAATAATTATATTTTGAAA [XGTACX_negctrl_site495] | 9.31 |
| AAATTACTAATGTGCACACATACTAACGTTTAAATA [CACACA_site3572] | 9.92 |
| AAAAATGTAAAGTGCGTGCACAAAATATTTGGAAAA | 9.89 |
| CAAAGATAAAATGATGCACACAAAAGGGTGTAATAT [CACACA_site8499] | 10.1 |
| TATATTTATTTATATGTATGCATGTCTGTATATGCT [TGCATGCA_site339] | 9.49 |
| AAAGTACAATCATAATCACACGTGTCTATTATATAC [CACACA_site8103] | 10.1 |
| ACATGGTTTACACGTGCATGTGGATGACTGGACATT [TGCATGCA_site640] | 9.9 |
| TTAAAATTAAAATACGTACACACCTTATCTTTTTGG [CACACA_site7982] | 9.86 |
| GAAAAGATTTAAAAATGTACAAAAGAAAAAAAAAAA [XGTACX_site6916] | 9.6 |
| TTATTATTTATTTTTTATTATTATTATTTTTTTTTA [XGTACX_negctrl_site76] | 9.63 |
| CATATATTTTGAAACACACACATATAAAATATACAT [CACACA_site6664] | 10.6 |
| AAGTATTTCCTAAAATGTACATATAAATAAGTATAT [XGTACX_site1282] | 9.59 |
| AAATCTTAATAAAGTTGTACATAATTATGTTTAATA [XGTACX_site3348] | 9.6 |
| TTTTTTACTATATCAATTACAAAACAAAAAAAAAAA [GTGCAC_negctrl_site683] | 9.2 |
| TATCATTTGGTCTTTTACTTTTTCTGTTTTTTTTTT [CACACA_negctrl_site976] | 9.91 |
